Laboratory results published in the supplement of paper PMC10338343.
± gives the standard deviation. In all, about 6,600 sequences were measured (“pre-steady-state target cleavage rate”: median about 0.07, highest 2% from about 0.72 on). The list shows a part of the results, in another mix than the full data.

What follows are sequences tested on MIWI (PIWIL1) piRISC loaded with Kctd7 piRNA (30 nt) (assay: pre-steady-state target cleavage rate (min^-1); MIWI and MILI are mouse PIWI proteins and EfPiwi is from a freshwater sponge; tags in brackets are library labels; higher = faster piRNA-guided slicing of the target). Settings: guide: Kctd7 piRNA 5'p-UGUUAAUCUCUCAGAGAAGGUGACAGUGAU; auxiliary factor: 500 nM mouse GTSF1.
Procedure: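 Cleave-'n-Seq: a library of target RNAs (target site embedded in constant flanks, ACAGCATTCCGCGTTAGTGATATCCG... 5' flank; DNA-blocked outside the site) at 0.1 nM was incubated with 1 nM active mouse MILI or MIWI piRISC (synthetic 5'-monophosphorylated piRNA guide) with or without 500 nM mouse GTSF1 at 33 °C for 1 min to 16 h. Uncleaved targets were sequenced and normalised to non-target controls, and the pooled three trials were fitted to a burst-and-steady-state model to give the pre-steady-state cleavage rate (min^-1; k3 is constrained to at most 1e-4). Sequence is the target site only; target names encode pairing extent (gX:gY) and contiguous / 1-mismatch / 2-mismatch / bulge geometry. Fits with R² ≤ 0 are excluded.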

| Sequence | pre-steady-state target cleavage rate |
| --- | --- |
| AUCUCUGUCACCUUCUCUGUGAGAUUAACA | 0.276 ± 0.011 |
| UUCACUGUCACCUUCUCUGAGAGAUUACA | 0.449 ± 0.07 |
| UAGUCUGUCAGGUUCUCUGAGAGAUUAACA | 0.318 ± 0.023 |
| UAGUGUCUCACCUUCACUGAGAGAUUAACA | 0.276 ± 0.019 |
| AUCACUGACACCUUCUCUGAGAGAUAAACA | 0.305 ± 0.054 |
| UACACUGUCACCUUCUGUGAGAGAUUAACA | 0.613 ± 0.034 |
| UAGACUGUGACCUUCUCUGUGAGAUUAACA | 0.22 ± 0.013 |
| UAGUGACAGACCUUCUCUGAUAGAUUAACA | 0.257 ± 0.029 |
| UAGUCUGUCACCUUCUGUCAGAGAUUAACA | 0.01 ± 0.0034 |
| UUGUGUGUCACCUUCUCUGAGAGAUUAAGA | 0.166 ± 0.025 |
| UAGUGACAGUCCUUCUCUGAGAGAGUUAACA | 0.0494 ± 0.009 |
| UAGUGACUCACCAUCUCUGAGAGAUUAAGA | 0.0202 ± 0.0057 |
| UAGUGACACACCUUCUCUGAGUCAUUAACA | 0.00484 ± 0.003 |
| UAGUGUGUCUCGUUCUCUGAGAGAUUAACA | 0.345 ± 0.027 |
| AUCAGUGUCACCUUCUCAGAGAGAUUAACA | 0.425 ± 0.027 |
| UACACUGAGACCUUCUCUGAGAGAUUAAGA | 0.09 ± 0.026 |
| AAUCACUGUCACCUUCUCUGAGAGAUUAACA | 0.81 ± 0.043 |
| UAGACUGAUCACCUUCUCUGAGAGAUUAACA | 0.65 ± 0.046 |
| UAGUGACACACCUUCUCUGAGAGUAUAACA | 0.0487 ± 0.0099 |
| AUCACUGUCACCUUCUCUAGAGAUUAACA | 0.192 ± 0.02 |
| AUCACUGUCACCUUCUCUGAGAGAUUAACG [g2:g30:cont:t1G] | 0.713 ± 0.037 |
| UUCACUGUCUGGUUCUCUGAGAGAUUAUGA | 0.00454 ± 0.0026 |
| UAGUGUGUCACGUUCUCUGACAGAUUAACA | 0.172 ± 0.02 |
| UAGUGACAGAGCUUGUCUGAGAGAUUAACA | 0.00642 ± 0.0034 |

| Sequence | pre-steady-state target cleavage rate |
| --- | --- |
| UAGUGUGUCACCUUCUCUGUGAGAUUUACA | 0.138 ± 0.02 |
| UAGUGACAGUCCUUCUGUGAGAGAAUAACA | 0.00351 ± 0.0033 |
| UAGUGACAGACCAUCUCUGAGAGAUUAACA | 0.0276 ± 0.0056 |
| UAGACUGUGUGCUUCUCUGAGAGAUUAACA | 0.0272 ± 0.0052 |
| UAGUGACAGUCACUUCUCUGAGAGAUUAACA | 0.4 ± 0.043 |
| UUCACUGUCACCUACUCUGAGAGAUAUUGA | 0.0061 ± 0.0034 |
| AAGACUGUCACCUUCUCUGAGAGAUUAUGA | 0.0913 ± 0.017 |
| UACACUGUCACCUUCUCAGAGUGAUUAACA | 0.0181 ± 0.0067 |
| UAGUGACACACCAUCUCAGAGAGAUUAACA | 0.0136 ± 0.0046 |
| AUCAGUGUCACCUUCUCUGAGAGAUUUUGA | 0.102 ± 0.027 |
| UAGUCAGUCACCUUCUCUGAGACAUUAACA | 0.215 ± 0.017 |
| UAGUGACUCACCUUCUCUCAGAGAUUAUCA | 0.0386 ± 0.0072 |
| AUCACUGUGACCUUCUCUGAGAGAUUAAGA | 0.194 ± 0.027 |
| AUCAGUGUCACCUUCUCUCAGAGAUUAACA | 0.118 ± 0.0098 |
| UAGUCUGAGACCUUCUCUGAGAGAUUAUGA | 0.0156 ± 0.0038 |
| UAGUGACUCACCUUCUCUGAGAGGUUAACA | 0.217 ± 0.025 |
| UAGUGACACACCUUCGCUGAGAGAUUAACA | 0.106 ± 0.012 |
| UAGUCUGUCACCAUCUCUGAGAGAUAAACA | 0.246 ± 0.025 |
| UUCACUCUCACCUUCUCUGACAGAUUAACA | 0.525 ± 0.031 |
| UAGUCUGUCACCUUGCUCUGAGAGAUUAACA | 0.47 ± 0.081 |
| UUCACUGUCACCUUCUCUGAGAGAUUAAACA | 0.406 ± 0.04 |
| UUCACUGUCACCUUCUCAGAGAGAAUAACA | 0.0792 ± 0.02 |
| UAGUGACUCACCUUCUCUGAGAGGAUUAACA | 0.172 ± 0.015 |
| UAGUGAGUCACCUUACUCUGAGAGAUUAACA | 0.38 ± 0.034 |

| Sequence | pre-steady-state target cleavage rate |
| --- | --- |
| UAGUGACAGACCUUCGCUGAGAGAUUAACA | 0.0274 ± 0.0057 |
| UUCACUGUCACCUUCUCUGAGUCAUUUUGA | 0.00539 ± 0.0029 |
| UAGUGACAGACCUUCUCUGAGAGUAUAACA | 0.0111 ± 0.0039 |
| UAGUGACAGACCUUCUCUGAGAGAUUAUACA | 0.0925 ± 0.017 |
| UAGUCUGUCACCUUCUCUGAGAGAUUUAGA | 0.0734 ± 0.028 |
| UAGUCUGUCACCUUCUCUGAGAGAUAACA | 0.116 ± 0.02 |
| UAGUGACACCCCUUCUCUGAGAGAUUAACA | 0.426 ± 0.042 |
| UAGUGUGUCACCUUCUCUGAGAGAAAAAGA | 0.0283 ± 0.011 |
| AUCACUGUCACCUUGUCUGAGUGAUUAACA | 0.048 ± 0.0066 |
| UAGUGACACACCUUCUGUGAGAGAAUAACA | 0.0506 ± 0.0083 |
| UACACUGUCACCUUCUCAGUGAGAUUAACA | 0.0229 ± 0.006 |
| UACAGUGUCUCCUUCUCUGAGAGAUUAACA | 0.499 ± 0.035 |
| UAGUGAGUCACCUUCUCUGAGAGAUUAAUCA | 0.408 ± 0.044 |
| UAGUCUGACACCUUCUCUGAGAGAUUAUGA | 0.033 ± 0.0063 |
| UAGUGACACUGCUUCUCUGAGAGAUAUUGA | < 0.0001 |
| UAGACUGUCACGUACUCUGAGAGAUUAACA | 0.293 ± 0.032 |
| UAGUGUGUCACCUUCUCUGAGAGAAUUUGA | 0.124 ± 0.033 |
| UACACAGUCACCUUCUGUGAGAGAUUAACA | 0.376 ± 0.024 |
| AUCACUGUCACCUACUCUGUGAGAUUAACA | 0.219 ± 0.014 |
| UUCACUGUCACCUUCUCUGUCAGAUAUUGA | 0.0146 ± 0.0073 |
| UAGUGAGUCACCUUCACUGAGUGAUUAACA | 0.0231 ± 0.0038 |
| AUGACUGUCACCUUCUCUGAGAGAUUUUGA | 0.0138 ± 0.0047 |
| UUCACAGUCACCUUCUCUCAGAGAUUAACA | 0.126 ± 0.012 |
| UACACUGUCACCUUCUCUGUGAGAUAUUGA | 0.00592 ± 0.004 |
